The results in this text go back to publication PMC4158416.

Sequences of proteins named here, by UniProt entry; tags and fusion partners are left off. A change or cut given only in a name is not applied to a line headed by its entry. Residues count along the entry.
UniProt Q9HC29: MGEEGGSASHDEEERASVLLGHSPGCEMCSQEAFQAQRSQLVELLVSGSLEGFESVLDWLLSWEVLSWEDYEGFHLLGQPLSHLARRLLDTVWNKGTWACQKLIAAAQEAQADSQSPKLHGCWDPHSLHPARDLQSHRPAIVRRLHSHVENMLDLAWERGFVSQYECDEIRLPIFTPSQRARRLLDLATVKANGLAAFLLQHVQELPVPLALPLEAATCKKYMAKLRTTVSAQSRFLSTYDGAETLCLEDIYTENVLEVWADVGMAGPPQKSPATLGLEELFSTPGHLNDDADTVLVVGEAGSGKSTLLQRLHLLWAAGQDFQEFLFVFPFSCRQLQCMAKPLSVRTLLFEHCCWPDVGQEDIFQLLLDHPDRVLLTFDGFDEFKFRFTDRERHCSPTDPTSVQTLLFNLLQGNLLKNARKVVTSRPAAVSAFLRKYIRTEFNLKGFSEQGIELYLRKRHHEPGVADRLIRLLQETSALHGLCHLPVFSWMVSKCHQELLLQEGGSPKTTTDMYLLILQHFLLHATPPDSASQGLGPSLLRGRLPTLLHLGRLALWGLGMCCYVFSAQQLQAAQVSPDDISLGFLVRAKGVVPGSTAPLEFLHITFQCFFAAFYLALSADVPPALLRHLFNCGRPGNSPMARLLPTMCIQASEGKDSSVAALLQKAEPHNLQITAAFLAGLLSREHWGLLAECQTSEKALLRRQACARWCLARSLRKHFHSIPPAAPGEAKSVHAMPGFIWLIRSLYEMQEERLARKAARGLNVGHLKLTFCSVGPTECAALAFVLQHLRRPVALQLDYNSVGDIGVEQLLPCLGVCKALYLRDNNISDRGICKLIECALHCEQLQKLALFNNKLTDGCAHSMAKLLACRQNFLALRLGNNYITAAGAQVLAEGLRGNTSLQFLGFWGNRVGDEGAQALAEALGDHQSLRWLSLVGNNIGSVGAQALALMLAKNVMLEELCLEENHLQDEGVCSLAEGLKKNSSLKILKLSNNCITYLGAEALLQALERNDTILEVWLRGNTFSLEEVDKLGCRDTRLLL
FLAG-NOD2 CARD only construct extended to position 260: residues 1-260 of Q9HC29
FLAG-NOD2 CARD only construct extended to residue 240: residues 1-240 of Q9HC29
FLAG-NOD2 CARD only construct (residues 1–227): residues 1-227 of Q9HC29
15N-labelled human NOD2 (28–218): residues 28-218 of Q9HC29
His6-MBP-NOD2 tandem CARDs (residues 28-215)-FLAG: residues 28-215 of Q9HC29
FLAG-NOD2 274–1040: residues 274-1040 of Q9HC29
His6-MBP-RIP2 CARD (residues 432-534)-FLAG (O43353, residues 432-534): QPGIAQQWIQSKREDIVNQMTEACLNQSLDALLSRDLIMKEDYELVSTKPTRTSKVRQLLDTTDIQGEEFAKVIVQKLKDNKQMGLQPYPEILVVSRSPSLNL
GB1-RIP2–CARD (human) (O43353, residues 432-524): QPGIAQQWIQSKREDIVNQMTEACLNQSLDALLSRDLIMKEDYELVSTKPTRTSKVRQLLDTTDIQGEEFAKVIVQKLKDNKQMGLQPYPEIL

For test [1], the target named is T1, His6-MBP-CARD9 CARD (residues 6-100)-FLAG (murine) (UniProt A2AIV8).
T1 sequence: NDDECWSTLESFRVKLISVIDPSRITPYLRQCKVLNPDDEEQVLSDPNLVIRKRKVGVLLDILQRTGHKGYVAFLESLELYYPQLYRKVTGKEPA
In words: pull-down; co-sonication pull-down: E. coli cultures with the overexpressed proteins resuspended and combined before sonication (100 mM NaCl, 25 mM sodium phosphate, 20 mM imidazole, 5 mM β-mercaptoethanol, 0.1 % Triton-X100); His-MBP fusion purified on amylose resin; co-purifying protein seen by Coomassie staining after SDS–PAGE.

For test [2], the target named is FLAG-NOD2 274–1040 (human) (UniProt Q9HC29). In words: co-IP; HEK 293T co-transfected with FLAG-NOD2 construct and mCARD9-V5, lysed after 24 h in RIPA buffer; anti-FLAG on Protein G Dynabeads; blot with anti-V5.
In test [3] the target is FLAG-NOD2 CARD only construct (residues 1–227) (human) (UniProt Q9HC29). The test is described as above.
Test [4] has as its target FLAG-NOD2 CARD only construct extended to position 260 (human) (UniProt Q9HC29). The description is as above.
Test [5] has as its target FLAG-NOD2 CARD only construct extended to residue 240 (human) (UniProt Q9HC29). The description is as above.
The target of test [6] is FLAG-NOD2 R334W (full-length, Blau Syndrome associated SNP) (human) (UniProt Q9HC29). The description is as above.
The target of test [7] is FLAG-NOD2 R702W (full-length, Crohn's Disease associated SNP) (human) (UniProt Q9HC29). Described as above.
The target of test [8] is Full-length human NOD2 with an N-terminal FLAG tag (pCMV-FLAG-NOD2) (human) (UniProt Q9HC29). The description is as above.
The target in test [9] is 15N-labelled human NOD2 (28–218) (human) (UniProt Q9HC29). As to the kind of experiment: NMR titration; 2D 1H/15N HSQC of 15N-labelled NOD2 (28–218) without and with equimolar (1:1) unlabelled CARD9 CARD; 20 mM sodium phosphate pH 7.1, 100 mM NaCl, 5 mM DTT; 180 μM, 298 K, 600 MHz; both purified.
Test [10] concerns the target T1, His6-MBP-CARD9 CARD (residues 6-100)-FLAG (murine). In words: pull-down; co-sonication pull-down: E. coli cultures with the overexpressed proteins resuspended and combined before sonication (100 mM NaCl, 25 mM sodium phosphate, 20 mM imidazole, 5 mM β-mercaptoethanol, 0.1 % Triton-X100); His-MBP fusion purified on amylose resin; co-purifying protein seen by Coomassie staining after SDS–PAGE. This is another data set of the same source.

For test [11], the target named is His6-MBP-NOD2 tandem CARDs (residues 28-215)-FLAG (human) (UniProt Q9HC29). The test is described as above.
The target of test [12] is His6-MBP-RIP2 CARD (residues 432-534)-FLAG (human) (UniProt O43353). The test is described as above.

Read-outs that look alike come from different tables or passages of the source. These are yes or no findings as the source states them, for the method shown. For part of these data: In cells and extracts the contact can be indirect. Some entries that bind do so weakly or less than the wild type. Where a sequence is shown, tags or fusion partners need not be part of it.

Consider “GB1-RIP2–CARD (human) (from UniProt O43353 432-524) (domain or fragment)”, for which, in [1], the binding result is “no binding”.

B1: Full length murine CARD9 with a C-terminal V5-His epitope tag (pEF6-mCARD9-V5) (protein, UniProt A2AIV8 1-536)
chain: MSDYENDDECWSTLESFRVKLISVIDPSRITPYLRQCKVLNPDDEEQVLSDPNLVIRKRKVGVLLDILQRTGHKGYVAFLESLELYYPQLYRKVTGKEPARVFSMIIDASGESGLTQLLMTEVMKLQKKVQDLTALLSSKDDFIKELRVKDSLLRKHQERVQRLKEECELSSAELKRCKDENYELAMCLAHLSEEKGAALMRNRDLQLEVDRLRHSLMKAEDDCKVERKHTLKLRHAMEQRPSQELLWELQQEKDLLQARVQELQVSVQEGKLDRNSPYIQVLEEDWRQALQEHQKQVSTIFSLRKDLRQAETLRARCTEEKEMFELQCLALRKDAKMYKDRIEAILLQMEEVSIERDQAMASREELHAQCTQSFQDKDKLRKLVRELGEKADELQLQLFQTESRLLAAEGRLKQQQLDMLILSSDLEDSSPRNSQELSLPQDLEEDAQLSDKGVLADRESPEQPFMALNKEHLSLTHGMGPSSSEPPEKERRRLKESFENYRRKRALRKMQNSWRQGEGDRGNTTGSDNTDTEGS
For the molecule B1, the binding result is on record as “binds” in test [2]; “no binding” in test [3]; “binds” in test [4]; “no binding” in [5]; “binds” in test [6]; “binds” in test [7]. For the same molecule, the binding result in [8] is given as “binds”.

B2: His-CARD9 CARD (murine, N-terminally 6His tagged, pDEST-17) (domain or fragment, UniProt A2AIV8 6-100)
chain: NDDECWSTLESFRVKLISVIDPSRITPYLRQCKVLNPDDEEQVLSDPNLVIRKRKVGVLLDILQRTGHKGYVAFLESLELYYPQLYRKVTGKEPA
Consider B2, for which the binding result in test [9] was “no binding (tested: 180 μM, 1:1 equivalents)”; in [10], “binds weakly”; in test [11], “no binding”; in [12], “no binding”.
